# Laboratory results: ChEMBL document CHEMBL4888484, “Replenishing the malaria drug discovery pipeline: Screening and hit evaluation of the MMV Hit Generation Library 1 (HGL1) against asexual blood stage Plasmodium falciparum ,using a nano luciferase reporter read-out” (2022)
# The campaign covered roughly 150,000 compounds. About 540 (0.36%) showed an effect of 50% or more. The list shows a part of the results.
# Tested on: Plasmodium falciparum
# Test: Primary screen in NF54 nanoGlo assay, in single point, at 2uM, 72h; a lower Z score goes with more inhibition
# Assay type: functional, Erythrocyte
# Details: timepoint 72 hour
SMILES,% Inhibition [%],Z score
CC(NC(=O)C1CC(=O)N(C)C1)c1ccc(-c2cccnc2)cc1 (stereo not drawn),-2,0.16
Cc1c(C(=O)N2CCN(c3ccccc3)CC2)oc2cc3sc(N4CCCCC4)nc3cc12,-10,1.25
CN(CCc1noc(-c2cc3ccccc3[nH]2)n1)C(=O)c1ccc(N(C)C)cc1,4,-0.69
CCc1ccc([C@H](C)NCCCc2c(C)noc2C)o1,0,-0.03
CN(CCC1CCOCC1)C(=O)c1cc(Cn2ccc3ccccc32)[nH]n1,6,-0.65
CCOC1CC(N(C)C(=O)Cc2c[nH]c3cc(F)ccc23)C1(C)C (stereo not drawn),-2,0.25
CCc1nnc(NC(=O)CNc2cccc(C(F)(F)F)c2)s1,-6,1.01
CC(C)N=C(NCc1cccnc1N1CCOCC1)c1cccs1,-4,0.71
O=C(NCCc1ccccc1)[C@H]1CNC[C@@H](COc2ccc3c(c2)CCC3)C1,-7,0.86
CN(C)CCNc1[nH]c2nnc(N)c-2c2c1CN(Cc1ccccc1)CC2,-3,0.47
Cc1c(NC(=O)Nc2ccc(Cl)cc2)cc(NC(=O)Nc2ccc(Cl)cc2)c(C)c1N1CCCC1=O,10,-1.55
O=C(Nc1cccc(-c2cnc[nH]2)c1)N1CCC(F)(F)CC1,-18,2.17
CCOc1ccc(NC(=O)[C@H](CC)n2c(C)nc3onc(C)c3c2=O)cc1,-4,0.55
O=C(Cc1csc(Nc2ncccn2)n1)N1CCCC1,-2,0.4
N[C@H](Cc1c[nH]c2ccccc12)C(=O)NCc1cccnc1N1CCOCC1,-8,1.28
CCCc1nc2ccccc2n1[C@@H](CC)C(=O)N1CCC2(CC1)COC(=O)O2,-5,0.64
N#Cc1cc2ccccc2nc1OC[C@H]1CCCN1,-21,3.08
O=C(NCCn1ccc2cc(Br)ccc21)c1ccncc1,-2,0.29
CC(=O)N/C(=C\c1ccc(F)cc1)C(=O)N(C)C,-32,3.7
COc1cccc([C@H](c2oc3ccccc3c2NC(=O)c2ccccc2)N2CCC(C)CC2)c1OC,-9,1.39
CC(C)Cc1nc(N2CCCN(C(=O)C3CCCCC3)CC2)c2c(-c3cccc(C(F)(F)F)c3)noc2n1,-10,1.45

SMILES,% Inhibition [%],Z score
CC(C)n1c(=O)[nH]c2cc(C(=O)N3CCOCC3)ccc2c1=O,4,-0.48
Cc1cc(-c2cc(O)cc(CC[C@H]3CCCCN3)c2)nc(N)n1,-5,0.81
Cc1nnc(-c2nn(-c3ccc(C(=O)N4CCCC[C@@H]4C)cc3)c(-c3ccc(F)cc3)c2C)o1,-11,1.55
Cn1cncc1C(=O)NCC1(COc2ccccc2)CC1,-7,0.89
CCC(CC)n1nc(C)cc1NC(=O)Cc1nc2ccccc2o1,-3,0.4
CCc1ncc(NC(=O)N(Cc2ccoc2)C2CC2)cn1,-12,1.22
O=C(CCn1cnc2cc(-c3noc(-c4ccncc4)n3)ccc21)N1CCCCCC1,-31,4.04
CCOC1CC(CO)(NCc2ccc(C)c(C)c2)C1(C)C (stereo not drawn),5,-0.9
CC1OCCC1NCC(=O)N1CCN(c2cccc(Cl)c2)CC1 (stereo not drawn),-8,0.99
Fc1ccccc1OCCNCc1ccc([C@@H]2CCCCO2)o1,-4,0.69
COCCN1C[C@@H](Cc2nc(C)ccc2OC)CC1=O,-4,0.57
O=C(NC1CCN(c2ncnc3c2CCCC3)CC1)[C@@H]1Cc2ccccc2CO1,7,-0.89
C[C@@H](CCc1cccc(F)c1)N(C)CC#N,-7,1
O=C(Nc1ccc(F)cn1)N[C@H]1CCCC12OCCO2,-11,1.15
COc1ccc(S(=O)(=O)N2CCCC[C@H]2c2nccs2)cc1Cl,2,-0.37
Cc1cnc(C(NC(C)C2CC2)C2CC2)s1 (stereo not drawn),-3,0.4
Cc1cncc(-c2nc(C)nn2CC(F)(F)F)c1,-6,0.99
CC1CCCN(C(=O)OCC2CCCCN2)C1 (stereo not drawn),-2,0.2
COCCC(=O)Nc1cc(Br)c(F)cc1Cl,-5,0.85
CCN1CCN(S(=O)(=O)c2cc(NC(=O)C3CCC3)ccc2Oc2c(C)c(C(=O)O)nn2-c2ccc(C)cc2C)CC1,-4,0.65
CCN(C)C1(CNS(=O)(=O)c2ccc(C)s2)CCCC1,-5,0.7

SMILES,% Inhibition [%],Z score
C=C[C@@](C)(O)CN1CCN(Cc2nc(C(=O)N3CCN(c4ccccc4CC)CC3)co2)CC1,1,-0.09
CCN(CCOC)C(=O)N[C@@H](C)c1ccc(O)c(F)c1,-9,0.9
CCCCNC(=O)N1CCN(c2nc(CCCC)nc3onc(-c4ccccc4)c23)CC1,-1,0.07
O=C(NC1CCCC1)c1cc2n(n1)[C@H](C(F)(F)F)C[C@H](c1ccco1)N2,-3,0.36
CNC(=O)[C@H](Cc1c[nH]c2ccccc12)NC(=O)Nc1ccc(OCCOC)nc1,0,-0.06
COc1cc(=O)n(-c2ccccc2)cc1C(=O)N1CCN(S(=O)(=O)C2CC2)CC1,16,-1.98
COCc1ccc(C(=O)N(Cc2ccncc2)Cc2ccc3c(c2)OCO3)o1,5,-0.68
c1ccc2c(-n3nnc4ccccc43)ncnc2c1,10,-0.97
CCNc1ncc(CN(C)C[C@H]2CCOC2)cn1,-2,0.27
CCc1nnc(C(=O)NC(CC)(CC)C(=O)OC)s1,-15,2.1
COc1ccc(C(O)(C(=O)NCCCCOc2ccccc2)c2ccc(OC)cc2)cc1,-1,0.1
CNc1ccnc(N(C)C[C@H]2CCCN(CCOC)C2)n1,0,0.05
CC(C)CO[C@@H](C)C(=O)NOc1ccc(F)cc1,-12,1.56
Cc1ccc(C(=O)N2CCN=C2N2CCCC2)cc1,-12,1.15
CCN1CCCn2nc([C@H]3CCCN(Cc4ccoc4)C3)cc2C1=O,-6,1.04
COc1ccc(S(=O)(=O)N(c2ccc3[nH]ccc3c2)[C@@H](C)CC(C)C)cc1OC,-1,0.22
O=C(C1CCC1)N1CCc2cc(-c3ccncc3)ccc21,3,-0.48
CCCc1nc(C(=O)N2C[C@H]3CCC[C@@]3(CO)C2)cs1,-2,0.32
CNc1nc(C(=O)N[C@H]2CCN(Cc3csc(C)n3)C[C@@H]2O)cs1,-10,1.61
Cn1ncc(C2CC2)c1C(=O)Nc1cccc2[nH]ccc12,-5,0.8
Cn1ncc2c(=O)n(CC(=O)Nc3cccc(F)c3)nnc21,0,0.06

SMILES,% Inhibition [%],Z score
Cn1cc(S(=O)(=O)NC[C@@](C)(O)Cc2ccsc2)cn1,-7,0.81
Cc1nc(NCc2cc3n(n2)CCCN(CC(C)C)C3)c2cccnc2n1,-3,0.33
CC(C)n1cc(S(=O)(=O)Nc2ccc(F)c(F)c2)c2cccnc21,7,-1.21
COCc1ccc(CNc2nnc3ccccn23)o1,-12,1.57
COc1cccc2nc(C[C@H]3CN(C(C)C)CC[C@H]3CC(=O)O)[nH]c12,-12,2.23
CC(C)c1cc(=O)n(Cc2cccc(F)c2)c2cc(OCC(=O)Nc3ccc(F)cc3)ccc12,-6,1.16
CC(C)Oc1cccc([C@H]2CC(O)=Nc3nc(N4CCOCC4)sc32)c1,-7,0.88
CCCN(Cc1cccc(Cl)c1)C(=O)CC1=CCNCC1,0,-0.08
CCOc1ccc(OCC(=O)N2CCc3nc(NS(C)(=O)=O)sc3C2)cc1,9,-1.08
CC(C)c1ccc(C(=O)NC2CCCCC2C(N)=O)nc1 (stereo not drawn),-3,0.47
CC(C)(C)c1ccc(C(=O)Nc2nc3nc(-c4ccccc4)cc(O)n3n2)cc1,29,-3.31
CCOc1cc(CN[C@@H](C)c2ccccc2)c(Br)cc1OCC(=O)NCc1ccccc1,-14,1.92
Cc1cc(Br)cc(C)c1NC(=O)COc1ccc2c(c1)CCCC2,-7,0.99
Cc1c(C(=O)N2CCC(CNC(=O)Cn3cccn3)CC2)ccn1C,-21,1.99
C[C@H]1CCCN(c2ncc(Br)cn2)C1,-7,0.99
CN1C[C@@H](CO)[C@H](NC(=O)c2ccccc2)C1,-12,1.62
Cc1cc(C)cc(OCC(=O)N2CCC(c3nc4ccccc4o3)CC2)c1,-23,2.05
COc1cc(NC(=O)C2CCN(c3c(C(=O)N4CCCC4)cnc4snc(C)c34)CC2)cc(OC)c1OC,5,-0.78
Cn1cncc1[C@H]1C[C@@H]1C(=O)N1CCC(c2ccc3[nH]ccc3c2)CC1,0,0.06
COC1(OC)CC2(CN(C(=O)[C@H]3CCCO3)C2c2ccccc2)C1 (stereo partly drawn),-17,2.27
CC(C)[C@H]1CN(c2ccncc2F)C[C@@H]1C(=O)O,-15,1.52
